According to the supplement of paper PMC10126150:
Values marked as one replicate rest on one cluster of the flow cell; about a third of the high ones do not repeat.

Test system: ATP
Assay: switch fluorescence ratio, 500 uM ATP over buffer (Cy3 cluster intensity, sum of 5 cycles each) (fold (ratio)); higher = stronger signal-on switching upon ATP binding; sequences stand for … in TCGTCGGCAGCGTCAGATGTGTATAAGAGACAGTTTTTTTTTTTTTTTTTTTTTTTTT…TC
Details: aptamer strand: ATP DNA aptamer (quencher-CACCTGGGGGAGTATTGCGGAGGAAGG + anchor), 100 nM annealed; ATP concentration: 500 uM; one replicate
How it was run: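 For every switch-domain sequence, the fluorescence ratio is the mean of per-cluster values, each being summed target-cycle Cy3 intensity over summed buffer-cycle Cy3 intensity. Clusters outside 100-1000 RFU were excluded. On a modified Illumina MiSeq flow-cell, the Cy3-labelled switching-strand clusters were annealed to 100 nM quencher-labelled ATP aptamer, imaged in selection buffer and then after 15 min with 500 uM ATP at 22 °C. Five such cycles were run, with NaOH stripping and re-annealing between them.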
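Further: ATP exposure 15 min at 22 °C before imaging.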

Sequence | switch fluorescence ratio
TACAGGGTTG | 1.02
ACCTACGGCG | 1.19
AGGGCAAAGC | 0.983
TTTGGCCTGC | 1.02
GGCTAGGCGC | 0.974
GATAGAGAAT | 0.953
GCGAGAGGAC | 0.886
AACCACCATA | 1.05
GCCAAACAGG | 1.07
GATTGGATCA | 0.991
CCGGTAACAG | 1.11
GAAACAAGGC | 0.923
GTGCTGTATA | 0.966
TGTTGACATG | 0.988
TGCTTTGTAA | 1
TCATTTGTAA | 0.969
AAAAGCGAA | 1.01
CAGACCATTT | 0.969
TATTAGTATA | 0.969
CGTGTCACCG | 1
GCATGGCGGT | 0.996
AGTCAAAGC | 0.97
GAATGAAGTG | 1.05
TTAGCATAAC | 2.04
GCGTGGGCAG | 1
CCAGCTGGA | 0.977

Sequence | switch fluorescence ratio
CGTTAATTC | 1.1
TATCTGTCTG | 1.03
GCGATAAGAG | 1.1
GGAATGGGAC | 0.99
TGTTGCAACT | 0.995
ACGAAGTCGA | 1.01
TTGGAAACAC | 1.09
AAGGGAAGAA | 0.981
ATTAGGCGTA | 1.03
TTGGGATAGC | 0.984
GTCGGTAAGA | 0.995
GAGGGAAGTC | 0.951
AGACCGCCAA | 1.44
GAGTCCCTCA | 0.984
GAAGCTTGTG | 0.984
CCCGGCCGAT | 1.03
AGTGTTTTGA | 0.969
TTGGTGCTAT | 0.958
GTTTTACCCG | 1.03
GTGGGCAGGG | 1.01
AAGCTACGTC | 1.05
GTTCGAATTA | 0.989
TTGTCGACGT | 0.971
TGTCTGGGC | 0.962
TACTCGGAT | 0.989
GGGACTGAGC | 0.968

Sequence | switch fluorescence ratio
CAATATACCA | 1
TAGTATCTTA | 0.993
GGGGCTACAC | 0.982
GAACCGACGC | 2.93
TTCACTTCAA | 1.03
CGTCTAGTTG | 0.94
TATTCTAGAA | 1.03
TAGGTTTTC | 0.998
TCTGGTCCAG | 1.04
CCTCTGAGCG | 1.06
GGATTATTGC | 0.96
AGACGCGGCC | 1.02
GGCATCATCT | 0.964
ATCCACGATA | 1.12
ATGTCTAATA | 0.998
TCAAACTATT | 1.03
TTGCCCTGCG | 1.02
CTCCGGATTT | 2.22
GGGCTTGTCA | 0.992
AAATCACCG | 1.05
GCTGTTAATC | 0.964
ATGAATACGC | 1.08
GAGCTATCGA | 1.03
ATCTCCTTAT | 1.19
TTATGGTT | 1.01
AGGTGTCTGG | 1.05

Sequence | switch fluorescence ratio
GAAGTTTCCA | 0.992
TGAGTCAAGG | 0.973
TGTTCGAGTT | 0.949
GCCACAATAG | 2.09
CGCCAGTCAC | 1.18
ACGTCTGGGT | 0.99
CCAAGGCCCT | 1
ACTAGTCAGC | 1.02
CACACACTCG | 1.32
TTTTCGTTG | 0.992
AGAGGCGCTC | 0.962
CGGTGTGCAT | 0.984
TTCCAGCCTG | 0.986
GCCTGTTACA | 0.982
AGGAGGCAAG | 1
TGACGTGTAG | 1.04
GGATTTGGGC | 1.04
CTGACGGAGC | 4.88
TTTGTCCGTA | 1.09
AAGATATTC | 1
ATGAGGCTTG | 1.04
TTTTGGAAG | 1.01
CCCAGGTTCC | 1.7
TGCCCGAAGA | 1
GCGGAAGGTT | 0.992
GATACTAAAC | 1.14

Sequence | switch fluorescence ratio
CACCTGATTT | 1
CATTAACGTC | 1.13
TGATCCAAGT | 0.997
CGTACTCTAT | 1.05
TCCAAGTCTA | 1.02
ATTTCGTTGA | 1
GGGTAAGGG | 1.01
AATCACCCCG | 1.1
TGGTGACTAA | 0.943
GCTTTAACGT | 0.997
CAACGACTG | 1.07
TGCCAAAAGG | 1.02
GCGTGAACTA | 1.04
ATCTAACGGT | 1.01
GATCTGCAGT | 1.11
ACACAAATTT | 1.05
TTTCGGCGGA | 0.965
GATTAATAGA | 1.01
TCTTGATATT | 1.03
TTTGAGAGGC | 0.989
GTTACGTGCC | 1.07
AGTGGGGAA | 1
GCCTGAGTAG | 1.02
CAATAGTAAG | 1.03
ACCAACTTTT | 1.23
CCGATTAGGT | 1.03

Sequence | switch fluorescence ratio
TTTTGCTGCT | 1
TACAGCTACG | 1.09
CGGGTTCGAA | 1.09
TATAGGCAAC | 1.03
ACCAGACTTG | 1.01
CCGCCTTTAT | 2.14
CAATTGTTAG | 1.09
GCTGGCATTA | 0.984
TGACGTAGTA | 1.02
ATATGGGCAG | 0.969
GATTGGTGCT | 1.02
ATATACATAG | 1.03
GGAGACCGAG | 0.945
AATTAGGGCG | 1.04
TTGCGCGACG | 0.975
CTTTTTTAGT | 0.972
TCAAAAGCCG | 0.999
TGTTTTCTAT | 1.01
GCTGGGCGCT | 0.972
ATAGCTCAGT | 1.01
AGATGTTACC | 1.04
GTTACGAGGC | 1.14
AACTGAGATC | 1.03
GCGGTAGAGT | 1.01
GAAATCGCTT | 1.07
GTAAGTATGG | 1.01

Sequence | switch fluorescence ratio
AAATAGTCAT | 0.975
AGTTCCTGCG | 1.52
CAATGTTAGT | 1.01
CGACTACGGA | 1.06
GTCCTGCGTT | 1.05
TAAGATAAGT | 1.02
ATTAACATAG | 1.01
GTGATCGGGG | 0.997
CCCTAAAGCC | 1.05
TGTGTTACG | 1.01
TATGGTGTTA | 0.989
TTGTAGAGTA | 1.02
CCCGAGATTG | 0.977
GTGATGGCAT | 0.973
ACGTGATCTA | 1.04
GACAAGTAGA | 0.982
AACAGAAGAT | 1.01
CGTAGATGTT | 0.939
CTTGGTTCCC | 1.04
AAGTTTTCTT | 0.988
GTACCCAATG | 1
ACTCCACCCA | 1.47
TATGGTTAGC | 1.02
GATTGTTCAC | 0.966
TACTTGGGGG | 1.01
CGGTTTCATT | 1.01

Sequence | switch fluorescence ratio
AAGCTTAAAT | 0.967
GGTAACCATT | 1.05
GTCAATTTA | 1
ACAGAGTTGT | 1.01
GCTAATATAA | 0.987
ACCAAGGGGC | 1.14
GTTAGTCCG | 0.901
TTAGTCACCT | 1.14
TCGTTCTAGT | 1
AGACGTTAC | 1.8
GAGCTAACCA | 0.997
ACAATAGTTT | 1.02
ACATAATGGC | 1.1
TTTTCCTGTT | 1.03
TCATCGAGGC | 1.03
CCAGTAACAT | 1.02
TAATCAGATG | 0.98
GGGGTCTCGT | 0.984
ACTAAAGTAT | 1.01
